In the antibiotic and cytotoxicity screens of Wong et al. (2023):
This is one part of the list.

Tests used:
[1] = test system: HSkMC (human skeletal muscle cells); test: cytotoxicity call (relative viability < 0.9); settings: 10 µM
[2] = test system: HepG2; test: cytotoxicity call (relative viability < 0.9); settings: 10 µM
[3] = test system: S. aureus RN4220; test: growth inhibition call (relative growth <= 0.2); settings: 50 µM

C[C@@H]1CN([C@H](C)CO)C(=O)Cc2cc(NC(=O)Cn3cnnn3)ccc2O[C@H]1CN(C)CC1CCCCC1
inactive: cytotoxicity call [1] | cytotoxicity call [2] | growth inhibition call [3]

C[C@H](CO)N1C[C@H](C)[C@@H](CN(C)Cc2ccc(Cl)c(Cl)c2)Oc2ccc(NC(=O)Nc3ccc(F)cc3)cc2C1=O
inactive: cytotoxicity call [1] | cytotoxicity call [2] | growth inhibition call [3]

Cc1cccc(S(=O)(=O)N2C[C@@H](O)COC[C@H]3O[C@H](CC(=O)NCCCN4CCOCC4)CC[C@@H]32)c1
inactive: cytotoxicity call [1] | cytotoxicity call [2] | growth inhibition call [3]

COc1ccc(NC(=O)Nc2cccc3c2O[C@@H](CN(C)Cc2ccc(Cl)c(Cl)c2)[C@H](C)CN([C@H](C)CO)C3=O)cc1
inactive: cytotoxicity call [1] | cytotoxicity call [2] | growth inhibition call [3]

COc1ccc(NC(=O)N(C)C[C@H]2Oc3ccc(NC(=O)C4CC4)cc3C(=O)N([C@H](C)CO)C[C@@H]2C)cc1
inactive: cytotoxicity call [1] | cytotoxicity call [2] | growth inhibition call [3]

COc1ccc(S(=O)(=O)N(C)C[C@H]2Oc3ncc(Br)cc3C(=O)N([C@@H](C)CO)C[C@@H]2C)cc1
inactive: cytotoxicity call [1] | cytotoxicity call [2] | growth inhibition call [3]

C[C@H](CO)N1C[C@H](C)[C@H](CN(C)C(=O)Cc2ccncc2)Oc2ncc(C#Cc3ccccc3F)cc2C1=O
inactive: cytotoxicity call [1] | cytotoxicity call [2] | growth inhibition call [3]

Cc1ccc(S[C@]2(C(=O)NCCN3CCOCC3)CC(=O)N(Cc3ccccc3Cl)[C@@H]2c2ccc(CO)cc2I)cc1
inactive: cytotoxicity call [1] | cytotoxicity call [2] | growth inhibition call [3]

C[C@@H]1CN([C@@H](C)CO)C(=O)c2cc(NS(=O)(=O)c3ccc(F)cc3)ccc2O[C@@H](C)CCCCO[C@H]1CN(C)Cc1ccc2c(c1)OCO2
inactive: cytotoxicity call [1] | cytotoxicity call [2] | growth inhibition call [3]
